Measured values reported in the supplement of paper PMC12217912.
The list shows a part of the results. Sequences were assembled here from the parent chain. Inactive controls read about 0.05.

B1: TEV protease; numbered along this chain (parent)
chain: MGESLFKGPRDYNPISSSICHLTNESDGHTTSLYGIGFGPFIITNKHLFRRNNGTLVVQSLHGVFKVKDTTTLQQHLVDGRDMIIIRMPKDFPPFPQKLKFREPQREERICLVTTNFQTKSMSSMVSDTSCTFPSGDGIFWKHWIQTKDGQCGSPLVSTRDGFIVGIHSASNFTNTNNYFTSVPKNFMELLTNQEAQQWVSGWRLNADSVLWGGHKVFMVKPEEPFQPVKEATQL

Variants of: B1
Assay: raw area under fraction-flipped curve 0-4 h after induction (AUC4h, not background-subtracted), DNA-recorder readout of cleavage of the substrate (dimensionless); higher = more cleavage of the substrate by the protease variant
Settings: temperature: 34 °C; time window: 0-4 h after rhamnose induction
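Further: Bxb1 expression induced with 0.2% (w/v) L-rhamnose at OD600 near 0.5, cultures sampled hourly, flipped fraction per protease–substrate barcode pair counted by paired-end Illumina sequencing.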

Row | Variant | area with substrate ENLEFQS | area with substrate ENLFFQS | area with substrate ENLHFQS | area with substrate ENLIFQS | area with substrate ENLNFQS | area with substrate ENLPFQS | area with substrate ENLQFQS | area with substrate ENLRFQS | area with substrate ENLSFQS | area with substrate ENLWFQS
1 | MGESLFKGPRDYNPISSSICHLTNESDGHTTSLYGIGFGPFIITNKHLFRRNNGTLVVQSLHGVFKVKDTTTLQQHLVDGRDMIIIRMPKDFPPFEQKLKFREPQREERICLVTTNFQTKSMSSMVSDTSCTFPSGDGIFWKHWIQTKDGQCGSPLVSTRDGFIVGIHSASNFTNTNNYFTSVPKNFMELLTNQEAQQWVSGWRLNADSVLWGGHKVFMVKPEEPFQPVKEATQL [P96E] | 0.0589 | 0.107 | 0.0448 | 0.0876 | 0.0671 | 0.0658 | 0.0664 | 0.0412 | 0.0725 | 0.087
2 | MGESLFKGPRDYNPISSSICHLTNESDGHTTSLYGIGFGPFIITNKHLFRRNNGTLVVQSLHGVFKVKDTTTLQQHLVDGRDMIIIRMPKDFPPFPQKLKFREPQREERICLVTTNFQTKSMSSMVSDTSCTFPSGDGIFWKHWIQTKDGQCGSPLVSTRDGFIVGIHSASNFTNTNNYFTSVPKNFMELLTNQEAQQWVSGWRLNADSVLEGGHKVFMVKPEEPFQPVKEATQL [W212E] | 0.0686 | 0.0655 | 0.0327 | 0.0117 | 0.0644 | 0.0559 | 0.0565 | – | – | 0.0561
3 | MGESLFKGPRDYNPISSSICHLTNESDGHTTSLYGIGFGPFIITNKHLFRRNNGTLVVQSLHGVFKVKDTTTLQQHLVDGRDMIIIRMPKDFPPFPQKLKFREPQREERICLVTTNFQTKSMSSMVSDTSCTFPSGDGIFWKHWIQTKDGQCGSPLVSTRDGFFVGIHSASNFTNTNNYFTSVPKNFMELLTNQEAQQWVSGWRLNADSVLWGGHKVFMVKPEEPFQPVKEATQL [I164F] | 0.0443 | 0.0536 | – | – | 0.0546 | – | 0.0636 | – | – | –
4 | MGESLFKGPRDYNPISSSICHLTNESDGHTTSLYGIGFGPFIITNKHLFRRNNGTLVVQSLHGVFKVKDTTTLQQHLVDGRDMIIIRMPKDFPPFPQKLKFREPQREERICMVTTNFQTKSMSSMVSDTSCTFPSGDGIFWKHWIQTKDGQCGSPLVSTRDGFIVGIHSASNFTNTNNYFTSVPKNFMELLTNQEAQQWVSGWRLNADSVLWGGHKVFMVKPEEPFQPVKEATQL [L112M] | 0.0438 | 0.084 | – | – | 0.068 | 0.0602 | 0.0664 | 0.0759 | 0.0541 | 0.0635
5 | MGESLFKGPRDYNPISSSICHLTNESDGHTTSLYGIGFGPFIITNKHLFRRNNGTLVVQSLHGVFKVKDTTTLQQHLVDGRDMIIIRMPKDFPPFPQKLKFREPQREERICLVTTNFQTKSMSSMVSDTSCTFPSGDGIFWKHWIQTKDGQCGSPLVSTRDGFIVGIHSASNFTNTNNYFTSVPKNFMELLTNQEAQQWVSGWRLNADSVLWGGHKVFMVKPEEPFQFVKEATQL [P228F] | 0.0642 | 0.0769 | 0.066 | – | 0.0688 | 0.0575 | 0.0695 | 0.0687 | 0.0591 | –
6 | MGESDFKGPRDYNPISSSICHLTNESDGHTTSLYGIGFGPFIITNKHLFRRNNGTLVVQSLHGVFKVKDTTTLQQHLVDGRDMIIIRMPKDFPPFPQKLKFREPQREERICLVTTNFQTKSMSSMVSDTSCTFPSGDGIFWKHWIQTKDGQCGSPLVSTRDGFIVGIHSASNFTNTNNYFTSVPKNFMELLTNQEAQQWVSGWRLNADSVLWGGHKVFMVKPEEPFQPVKEATQL [L5D] | – | 0.114 | – | – | 0.0656 | 0.0671 | – | 0.0756 | – | 0.0687
7 | MGESRFKGPRDYNPISSSICHLTNESDGHTTSLYGIGFGPFIITNKHLFRRNNGTLVVQSLHGVFKVKDTTTLQQHLVDGRDMIIIRMPKDFPPFPQKLKFREPQREERICLVTTNFQTKSMSSMVSDTSCTFPSGDGIFWKHWIQTKDGQCGSPLVSTRDGFIVGIHSASNFTNTNNYFTSVPKNFMELLTNQEAQQWVSGWRLNADSVLWGGHKVFMVKPEEPFQPVKEATQL [L5R] | – | 0.125 | – | 0.0719 | 0.0597 | – | – | – | 0.0474 | –
8 | MGESLFKGPRDYNPISSSICHLTNESDGHTTSLYGIGFGPFIITNKHLFRRNNGTLVVQSLHGVFKVKDTTTLQQHLVDGRDMIIIRMPKDFPPFPQKLKFREPQREERICLVTTNFQTKSMSSMVSDTSCTFPSGDGIFWKHWIQTKDGQCGSPLVSTRDGFIVGIHSASNFTNTNNYFTSVPKNFMELLTNQEAQQWVSGWRLNADSVLWGGHKVFMVKPEDPFQPVKEATQL [E224D] | 0.0685 | 0.108 | 0.0698 | – | 0.0616 | 0.0569 | – | – | 0.0621 | 0.0711

Same assay, conditions: temperature: 34 °C; time window: 0-4 h after rhamnose induction

Row | Variant | area with substrate ENLDFQS | area with substrate ENLKFQS | area with substrate ENLLFQS | area with substrate ENLMFQS | area with substrate ENLTFQS | area with substrate ENLVFQS | area with substrate ENLGFQS
9 | MGESLFKGPRDYNPISSSICHLTNESDGHTTSLYGIGFGPFIITNKHLFRRNNGTLVVQSLHGVFKVKDTTTLQQHLVDGRDMIIIRMPKDFPPFPQKLKFREPQREERICLVTTNFQTKSMSSMVSDTSCTFPSGDGIFWKHWIQTKDGQCGSPLVSTRDGFIVGIHSASNFTNTNNYFTSVPKNFMELLTNQEAQQWVSGWRLNADSVLEGGHKVFMVKPEEPFQPVKEATQL [W212E] | 0.0569 | 0.055 | 0.0684 | 0 | 0.0629 | 0.0574 | –
10 | MGESLFKGPRDYNPISSSICHLTNESDGHTTSLYGIGFGPFIITNKHLFRRNNGTLVVQSLHGVFKVKDTTTLQQHLVDGRDMIIIRMPKDFPPFPQKLKFREPQREERICLVTTNFQTKSMSSMVSDTSCTFPSGDGIFWKHWIQTKDGQCGSPLVSTRDGFFVGIHSASNFTNTNNYFTSVPKNFMELLTNQEAQQWVSGWRLNADSVLWGGHKVFMVKPEEPFQPVKEATQL [I164F] | – | 0.0529 | – | 0.0358 | 0.0537 | 0.0731 | –
11 | MGESLFKGPRDYNPISSSICHLTNESDGHTTSLYGIGFGPFIITNKHLFRRNNGTLVVQSLHGVFKVKDTTTLQQHLVDGRDMIIIRMPKDFPPFPQKLKFREPQREERICMVTTNFQTKSMSSMVSDTSCTFPSGDGIFWKHWIQTKDGQCGSPLVSTRDGFIVGIHSASNFTNTNNYFTSVPKNFMELLTNQEAQQWVSGWRLNADSVLWGGHKVFMVKPEEPFQPVKEATQL [L112M] | – | 0.0704 | – | 0.0896 | – | 0.117 | 0.0773
12 | MGESLFKGPRDYNPISSSICHLTNESDGHTTSLYGIGFGPFIITNKHLFRRNNGTLVVQSLHGVFKVKDTTTLQQHLVDGRDMIIIRMPKDFPPFPQKLKFREPQREERICLVTTNFQTKSMSSMVSDTSCTFPSGDGIFWKHWIQTKDGQCGSPLVSTRDGFIVGIHSASNFTNTNNYFTSVPKNFMELLTNQEAQQWVSGWRLNADSVLWGGHKVFMVKPEEPFQFVKEATQL [P228F] | 0.0538 | 0.0836 | 0.0705 | – | – | – | –
13 | MGESDFKGPRDYNPISSSICHLTNESDGHTTSLYGIGFGPFIITNKHLFRRNNGTLVVQSLHGVFKVKDTTTLQQHLVDGRDMIIIRMPKDFPPFPQKLKFREPQREERICLVTTNFQTKSMSSMVSDTSCTFPSGDGIFWKHWIQTKDGQCGSPLVSTRDGFIVGIHSASNFTNTNNYFTSVPKNFMELLTNQEAQQWVSGWRLNADSVLWGGHKVFMVKPEEPFQPVKEATQL [L5D] | – | – | 0.0862 | 0.0566 | – | 0.0575 | –
14 | MGESRFKGPRDYNPISSSICHLTNESDGHTTSLYGIGFGPFIITNKHLFRRNNGTLVVQSLHGVFKVKDTTTLQQHLVDGRDMIIIRMPKDFPPFPQKLKFREPQREERICLVTTNFQTKSMSSMVSDTSCTFPSGDGIFWKHWIQTKDGQCGSPLVSTRDGFIVGIHSASNFTNTNNYFTSVPKNFMELLTNQEAQQWVSGWRLNADSVLWGGHKVFMVKPEEPFQPVKEATQL [L5R] | – | 0.0534 | – | – | – | – | –
15 | MGESLFKGPRDYNPISSSICHLTNESDGHTTSLYGIGFGPFIITNKHLFRRNNGTLVVQSLHGVFKVKDTTTLQQHLVDGRDMIIIRMPKDFPPFPQKLKFREPQREERICLVTTNFQTKSMSSMVSDTSCTFPSGDGIFWKHWIQTKDGQCGSPLVSTRDGFIVGIHSASNFTNTNNYFTSVPKNFMELLTNQEAQQWVSGWRLNADSVLWGGHKVFMVKPEDPFQPVKEATQL [E224D] | 0.0736 | 0.0681 | 0.074 | 0.0725 | – | 0.0987 | 0.0759
